Laboratory results published in publication PMC4336329 (PLoS ONE, 2015).
Among all 310,000 compounds or so, about 2,200 (0.71%) showed an effect of 50% or more. Effects have a minus sign here. The list shows a part of the results.

Each compound was assayed against human ether-à-go-go-related gene (hERG) potassium channel (human, UniProt Q12809) (assay: primary screen, population patch clamp on CHO cells stably expressing hERG).
Chain of human ether-à-go-go-related gene (hERG) potassium channel (Q12809 whole entry, looked up): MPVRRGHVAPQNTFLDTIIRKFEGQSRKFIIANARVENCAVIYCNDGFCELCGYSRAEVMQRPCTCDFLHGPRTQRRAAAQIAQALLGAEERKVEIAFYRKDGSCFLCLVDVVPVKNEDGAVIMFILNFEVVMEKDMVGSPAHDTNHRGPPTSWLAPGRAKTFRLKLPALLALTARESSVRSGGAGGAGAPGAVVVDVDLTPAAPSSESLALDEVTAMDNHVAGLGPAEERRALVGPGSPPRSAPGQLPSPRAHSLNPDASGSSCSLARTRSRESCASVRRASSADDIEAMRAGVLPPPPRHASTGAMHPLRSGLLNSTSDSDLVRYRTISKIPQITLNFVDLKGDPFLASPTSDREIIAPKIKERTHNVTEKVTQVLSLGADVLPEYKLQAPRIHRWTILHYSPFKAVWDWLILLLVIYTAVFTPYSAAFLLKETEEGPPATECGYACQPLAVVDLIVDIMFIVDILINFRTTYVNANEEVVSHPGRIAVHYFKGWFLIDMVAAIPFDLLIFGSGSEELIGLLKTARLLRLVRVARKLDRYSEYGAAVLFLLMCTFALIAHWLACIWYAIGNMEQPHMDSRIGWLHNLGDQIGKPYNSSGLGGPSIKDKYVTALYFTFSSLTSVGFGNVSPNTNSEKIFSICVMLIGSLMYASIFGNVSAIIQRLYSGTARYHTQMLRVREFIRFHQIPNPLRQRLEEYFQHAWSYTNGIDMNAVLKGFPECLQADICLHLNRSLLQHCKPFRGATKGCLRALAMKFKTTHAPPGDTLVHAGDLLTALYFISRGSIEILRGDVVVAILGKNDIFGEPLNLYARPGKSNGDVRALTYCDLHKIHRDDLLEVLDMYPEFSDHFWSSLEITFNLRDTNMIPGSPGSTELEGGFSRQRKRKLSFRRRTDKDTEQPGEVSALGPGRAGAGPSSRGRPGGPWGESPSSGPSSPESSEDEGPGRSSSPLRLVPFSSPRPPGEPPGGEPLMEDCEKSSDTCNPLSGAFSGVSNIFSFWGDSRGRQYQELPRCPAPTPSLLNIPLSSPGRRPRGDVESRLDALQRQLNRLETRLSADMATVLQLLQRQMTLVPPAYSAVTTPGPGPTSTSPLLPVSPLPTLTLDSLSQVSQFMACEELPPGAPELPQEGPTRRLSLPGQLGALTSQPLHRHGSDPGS

Structure (SMILES)	hERG current change (%, negative = inhibition) at 1uM [%]
CCN1CCCC1CNC(=O)c1ccc2c(c1)N(Cc1cccc(Cl)c1)C(=O)c1ccccc1S2(=O)=O (centres unmarked)	-16.1
CCOCc1nnc(NC(=O)C2CC(=O)N(C3CCCC3)C2)s1 (centres unmarked)	14.2
CCCCCc1ccc(-c2cn(Cc3cccc(OC)c3)nn2)cc1	18
Cc1cc(C(=O)N/N=C/c2ccc([N+](=O)[O-])s2)n[nH]1	14.8
COc1ccc(-c2nn3c(=O)c(C)nnc3s2)cc1	14.5
COc1cc2c(cc1NC(=O)c1cccc(S(=O)(=O)N(C)C)c1)oc1ccccc12	10.6
CCNC(=S)NS(=O)(=O)c1ccc(CC)cc1	9.16
CCCn1c(C)cc(=O)c2cc(NC(=O)c3cnccn3)ccc21	3.94
NS(=O)(=O)c1ccc(NC(=O)COC(=O)c2c3c(nc4ccccc24)/C(=C\c2ccc4c(c2)OCO4)CCC3)cc1	7.23
CCC1CCc2sc(C(=O)NCC(c3ccc(OC)cc3)N3CCCC3)cc2C1 (centres unmarked)	-11.2
Nc1ccc(-n2nncc2-c2ccco2)cc1	-13.2
Cc1cccc(C)c1NC(=O)NC1(C(=O)NCCCN2CCOCC2)CCCCC1	12.6
COc1ccc(NC(=O)Nc2ccccc2SC)cc1	11.1
Cc1ccc(C)c(OCCCC(=O)NC2CCCCC2)c1	7.33
CC(=O)Nc1ccc2c3c(cccc13)CC2	11.3
CC(C)C[C@H](NC(=O)[C@@H]1Cc2ccccc2CN1)C(=O)Nc1ccc(C(C)C)cc1	12.8
CSc1nccn1CC(=O)Nc1ccc(F)cc1	0.97
COc1ccc(C(C)=O)cc1COC(=O)c1ccc2c(c1)OCCO2	18.1
COc1ccc(CCNC(=O)c2cc(-c3ccccc3)c(N3CCOCC3)s2)c(OC)c1OC	9.16
O=C(Nc1ccc(-c2csc(Nc3ccccc3)n2)cc1)c1cc([N+](=O)[O-])cc(C(F)(F)F)c1	4.72
COc1ccc(C(=O)CCN2CCC(C)CC2)cc1.Cl	0.807
COc1cccc(C2C(C#N)=C(N)OC3=C2C(=O)CC(c2ccco2)C3)c1OCc1ccc(F)cc1 (centres unmarked)	7.29
NC(=O)CNC(=O)c1cccc(Cl)c1	12.7

Structure (SMILES)	hERG current change (%, negative = inhibition) at 1uM [%]
Cc1nc2cc(-c3ccc(Cl)cc3)nn2c(C)c1CCC(=O)NCc1ccco1	8.63
O=c1oc2ccccc2c2oc3cc(O)c(O)cc3c12	-3.94
Cc1csc2ncc(C(=O)N3c4ccccc4CC3C)c(=O)n12 (centres unmarked)	12.6
Cc1ccc2oc(=O)c(/C=C(\O)c3cccs3)nc2c1	13
Cc1cc(C)c2c(-n3cccc3)nn(C)c2n1	12.6
CC1CN(C(=O)COC(=O)c2c(Cl)cccc2Cl)CC(C)O1 (centres unmarked)	10.4
Cc1ccc(S(=O)(=O)Cc2ccc(C(=O)O)o2)cc1	1.29
CC(C)(C)N1CC(c2nc3ccccc3n2Cc2ccc(F)cc2)CC1=O (centres unmarked)	-6.39
COc1ccccc1C(O)(c1ccccc1)C(CN1CCOCC1)c1ccccc1.Cl (centres unmarked)	14.8
COc1ccc(OC)c2sc(N3CCN(c4ccccc4)CC3)nc12	0.951
Cc1ccc(C(=O)NC(=S)NCc2cccnc2)cc1	2.07
Nc1ncnc(Nc2c(F)cccc2F)n1	7.67
Cc1ccc(C(=O)CSc2nnc(CNc3ccc(F)cc3)o2)cc1	-2.46
O=S(=O)(NCc1cccs1)NCc1ccccc1F	5.55
CCC(=O)Nc1c(-c2ccccc2)c(=O)c2ccccc2n1C	13.3
O=C(Cn1cc(C(F)(F)F)ccc1=O)N/N=C/c1ccc(Cl)cc1	7.47
Cc1onc(-c2ccccc2)c1C(=O)Nc1nncs1	15.9
CCc1nc2ccccc2n1CC(=O)N(C(C)CC)C1CCS(=O)(=O)C1 (centres unmarked)	10.5
CCOC(=O)CSc1nc(-c2ccccc2)ns1	8.79
CCOC(=O)CSc1nnc(-c2ccoc2C)n1-c1ccc(OCC)cc1	-22.9
CC(Oc1cccc(Cl)c1)C(=O)Nc1cc(S(=O)(=O)N2CCOCC2)ccc1N1CCCC1 (centres unmarked)	-1.02
Cc1cc(NC(=O)C(C)SCC(=O)Nc2ccccc2N2CCCCC2)no1 (centres unmarked)	20
COC(=O)c1ccc(CSc2ncnc3ccccc23)o1	11.9

Structure (SMILES)	hERG current change (%, negative = inhibition) at 1uM [%]
CC(C)C(c1nnnn1Cc1ccc(F)cc1)N1CCN(Cc2ccc3c(c2)OCO3)CC1 (centres unmarked)	-2.47
CCN(c1cccc(C)c1)S(=O)(=O)c1c(C)[nH]c(C)c1C(=O)N1CCCCC1	11.1
C/C(=N\NC(=O)C(c1ccncc1)N1CCOCC1)c1ccc(Br)cc1 (centres unmarked)	5.99
CCOC(=O)c1c(/N=C/c2cc([N+](=O)[O-])ccc2O)sc(C)c1C	11.4
COc1ccc(Nc2nc(N)nc(CSC(=S)N3CCCCC3)n2)cc1	13.7
COC(=O)c1cc(OC)c(OC)cc1NC(=O)c1csc(C)c1	-0.691
CC(=O)CCc1oc2ccc(C)cc2c1-c1ccccc1	4.78
Cc1nn(Cc2ccccc2)c(C)c1NC(=O)c1cccs1	14
Cc1cccc(C)c1N(CC(=O)NC1CCCCC1)C(=O)c1csnn1	14.8
O=C(CCNC(=O)c1ccc(Br)cc1)Nc1ccccc1N1CCCC1	12.5
O=C(CSc1nnc(SCc2cccc3ccccc23)s1)N/N=C/C=C/c1ccccc1[N+](=O)[O-]	-9.84
COc1ccccc1/C=c1\sc2nc(-c3ccco3)nn2c1=O	17.5
COc1ccc(/C=N/NC(=O)c2ccc3c(c2)NC(=O)C(C)(C)O3)cc1OC	9.42
O=C(Nc1ccncc1)c1c(Cl)cccc1Cl	15.6
Cc1ccc(S(=O)(=O)NCc2nc3ccccc3c(=O)n2N)cc1	2.51
Cc1csc(NC(=O)C(NC(=O)c2ccccc2F)C(C)C)n1 (centres unmarked)	0.516
Cc1ccc(-n2c(Cn3nc(C(F)(F)F)cc3C)n[nH]c2=S)cc1	17.3
COC(=O)Cc1ccc(N(Cc2ccccc2F)S(=O)(=O)c2ccc(Br)cc2)cc1	11.2
COC(=O)C(C(=O)Nc1ncccn1)C1CCCCCC1 (centres unmarked)	-4.9
COc1ccc2nc(N3C(=O)CC(C(C)c4ccccc4)C3=O)sc2c1 (centres unmarked)	-4.65
CC(=O)c1ccc(NC(=S)NC(=O)c2c(Cl)c(C)nn2C)cc1	-0.492
O=C(O)CC(c1ccc(Br)cc1)N1Cc2ccccc2C1=O (centres unmarked)	11.1
CCc1cc2c(=O)nc3n(c2s1)Cc1ccccc1/C3=C(/O)c1ccccc1Cl	13.4

Structure (SMILES)	hERG current change (%, negative = inhibition) at 1uM [%]
c1ccc(-n2cnc3cc(NCc4cccs4)ccc32)cc1	2.7
Cn1c(CO)cnc1-c1ccccc1	17.2
COc1ccc(C(=O)Nc2cc([N+](=O)[O-])ccc2N2CCCC2)cc1	6.41
Cc1ccccc1-n1c(=O)cc(N2CCN(C(=O)c3ccco3)CC2)[nH]c1=O	7.19
COc1ccc(NS(=O)(=O)c2cccc(C(=O)NCC(c3ccc(F)cc3)N3CCOCC3)c2)cc1 (centres unmarked)	-5.28
Cc1ccc(NC(=O)CCC(=O)OC(C(=O)c2ccc(C)c(C)c2)c2ccccc2)c(C)c1 (centres unmarked)	0.712
O=C(COc1coc(CN2CCc3ccccc3C2)cc1=O)Nc1ccc(Cl)cc1	-0.649
CSc1nnc2c(n1)OC(c1cccn1C)N(C(C)=O)c1ccccc1-2 (centres unmarked)	6.15
Cc1oc(-c2cc(F)ccc2F)nc1CN1CCCN(C(=O)c2ccco2)CC1	-20.9
CCCCCc1ccc(CC(=O)N2CCOCC2)cc1	19.7
CCN(CCNC(=O)C1=C(C)C(=O)OC12CCC(C)CC2)c1ccccc1 (centres unmarked)	4.44
COc1ccc(S(=O)(=O)NC2CC2)cc1-n1cnnn1	1.94
CCC(C)c1ccc(NC(=S)NCc2ccccn2)cc1 (centres unmarked)	3.74
CC1=NNC(=O)C1Cc1ccc(F)cc1 (centres unmarked)	8.57
CCOC(=O)c1c(NC(=O)COC(=O)Cn2cnc3ccccc32)sc(C)c1C	8.73
CCN(CC)CCN(Cc1cc2cc(C)ccc2[nH]c1=O)C(=O)Nc1ccccc1OC	-22.2
Cc1ccc(S(=O)(=O)N(C)C)cc1NC(=O)CN1C(=O)NC(Cc2c[nH]c3ccccc23)C1=O (centres unmarked)	10.9
Cc1[nH]c2ccccc2c1C(=O)C(=O)NC1CC(=O)N(c2ccc(F)cc2)C1 (centres unmarked)	-26.4
CN(C)c1ccc(C=C2C(=O)OC3(CCCC3)OC2=O)cc1	10.2
O=c1onc(-c2ccc(Cl)cc2Cl)n1-c1cccnc1	11.1
